Experimental data reported in the supplement of paper PMC3334620.
Over roughly 33,000 sequences, “E-score (-0.5 to 0.5)” has its median near -0.016; the highest 2% begin near 0.32. This is one part of the list.

Target: T1, Stp1 (UniProt B3LFK1)
T1 sequence: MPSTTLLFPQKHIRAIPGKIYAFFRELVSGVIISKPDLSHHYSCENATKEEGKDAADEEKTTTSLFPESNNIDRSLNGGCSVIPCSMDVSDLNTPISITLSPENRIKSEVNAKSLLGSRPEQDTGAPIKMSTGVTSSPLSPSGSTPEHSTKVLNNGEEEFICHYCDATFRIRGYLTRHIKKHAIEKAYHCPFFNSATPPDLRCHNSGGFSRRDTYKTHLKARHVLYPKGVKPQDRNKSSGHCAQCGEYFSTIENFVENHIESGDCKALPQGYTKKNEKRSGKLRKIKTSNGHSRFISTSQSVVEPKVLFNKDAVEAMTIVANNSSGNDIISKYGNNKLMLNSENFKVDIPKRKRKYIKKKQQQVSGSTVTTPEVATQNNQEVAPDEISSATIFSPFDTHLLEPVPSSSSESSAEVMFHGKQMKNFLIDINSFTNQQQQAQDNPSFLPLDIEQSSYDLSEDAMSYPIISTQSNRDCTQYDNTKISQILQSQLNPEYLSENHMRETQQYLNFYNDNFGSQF
Assay: PBM E-score (8-mer binding enrichment) (E-score (-0.5 to 0.5)); higher = stronger / more preferred TF binding; most listed sequences are background and not binding sites
Conditions: protein concentration: 200 nM; construct: GST-full length
Experimental: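 Universal 'all 10-mer' protein binding microarrays (Agilent AMADID 015681) probed with GST-tagged S. cerevisiae TFs (full-length or DBD) made by in vitro transcription/translation (PURExpress), about 100-200 nM. Bound TF was detected with fluorescent anti-GST. Each ungapped 8-mer (which stands for itself and its reverse complement) is scored by the PBM enrichment score (E-score), a modified Wilcoxon-Mann-Whitney statistic from -0.5 to +0.5, computed with the Universal PBM Analysis Suite. Scale: above 0.35 generally sequence-specific binding.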

Sequence | PBM E-score
TGCAGCAA | 0.0652
GAAACGCC | 0.289
AGTTTCGG | -0.0129
GCCCGGAA | -0.0934
CAGAATAG | -0.0665
ACGTCCTG | -0.22
CTGGGATC | -0.267
CCAAGTCC | -0.248
TCATGTCA | -0.0676
AAGGCGCC | 0.424
TAAAGCCA | 0.141
GCGTTGGA | -0.115
ATGAGCCC | -0.254
CCAGCCTC | -0.308
CATTATAC | 0.0795
CTCATTCA | 0.00256
CTTAAGAA | 0.143
AAACGGAC | 0.00343
GAGCCTGC | -0.191
AATCGTCC | -0.119
CCAGTGAG | -0.106
CCTGTCCA | -0.323
CCACCGCG | -0.0193
TACGTCGA | -0.194

Sequence | PBM E-score
TACTCCGA | -0.225
CTAACATC | 0.0135
ACAAGGCT | 0.198
ATCATTGC | -0.0426
GCGGCGAC | 0.434
ACAACCAC | 0.136
CCACCGGA | 0.0599
CCTCATAA | 0.0904
AGTTGGTG | -0.0845
ATGGATTA | -0.0582
ACATGGCT | -0.137
CTGACGTC | -0.0523
ATCGCCCA | -0.213
AAATCGAC | 0.138
AATTGGGT | 0.29
GAGAGATC | -0.136
TCGATGCA | -0.102
CGTAGCAC | 0.111
AAACGCTC | -0.089
AGACAAGC | -0.0506
CTTCGGAC | 0.00313
TGATACCA | 0.0111
CTTCTCAC | -0.0125
CGACCCAG | -0.171

Sequence | PBM E-score
CCCTCGGA | -0.115
CAGGCCGA | -0.228
ACAACGAT | 0.00545
ACACGACA | 0.0769
GTAGAGCA | -0.0188
TCCGTAAA | 0.0695
AGCCGGCG | 0.138
ACTCTGGG | -0.126
AGCGCTCG | -0.149
TCTGACCA | 0.0759
CCTCGCAC | 0.0528
AGGCCAGC | -0.0895
GATAACGC | -0.00971
CAGATACA | 0.0984
ACCCCCCC | -0.311
ACCCCGGC | -0.392
CTCAAGTA | 0.00886
CATGCATC | 0.0342
ACCAAAAT | 0.12
CGATAACG | -0.288
CCACGATC | 0.144
GTCTTTGA | 0.0952
AGCAGACG | 0.0588
ACGTTTAT | 0.0901

Sequence | PBM E-score
CGCTGCCA | -0.0245
TAGGTACA | -0.139
CAACATCA | 0.0627
CCTGCGGA | 0.0839
AAGTTAGT | 0.0214
GGGGGGGA | -0.356
AAGTAACG | 0.133
ACAGGGTA | -0.125
GGGGGTAA | -0.379
GGATTGAA | -0.0161
ATTCGAGC | -0.0496
TATAGACA | 0.0363
GTATGAAA | 0.116
AGGCGTTC | 0.0316
GATGAGGA | -0.0567
CCCCTGCC | -0.198
AACAGGGT | -0.334
ATAGACAA | 0.0683
AGTTGCGC | -0.0494
ATGGATAG | -0.128
TCACATGA | -0.139
GAATACGA | 0.0211
